Data on 41 compounds can be found in ChEMBL document CHEMBL4888484, “Replenishing the malaria drug discovery pipeline: Screening and hit evaluation of the MMV Hit Generation Library 1 (HGL1) against asexual blood stage Plasmodium falciparum ,using a nano luciferase reporter read-out” (2022).

One may read the % Inhibition as the change of the read-out against control, counted positive when it falls.

Screen size: about 150,000 compounds; about 540 (0.36%) showed an effect of 50% or more. This is one part of the list.

For this assay, the system named is Plasmodium falciparum. In words: Primary screen in NF54 nanoGlo assay, in single point, at 2uM, 72h; a lower Z score goes with more inhibition. The format is functional, Erythrocyte. Conditions: timepoint 72 hour.
For the compound `CCOC(=O)C1CCN(C(=O)CN2C(=O)COc3ccc(S(=O)(=O)N4CCOCC4)cc32)CC1`, the “% Inhibition” value turned out to be 1% and the Z score is listed as -0.19.

With `C[C@@H]1COCCN1Cc1cn(Cc2cnc3ccccc3c2)nn1`, the “% Inhibition” value came out at 5% and the Z score was -0.94.

Consider `COc1cccc(OC)c1-c1nc(-c2ccc3nncn3c2)no1`, for which the “% Inhibition” value was -12% and the Z score was determined as 2.06.

Regarding `FC(F)(F)Oc1cccc(CN2CCC(c3nnc[nH]3)CC2)c1`, the “% Inhibition” value was -10% and the Z score is 1.26.

Turning to `O=C(c1ccncc1F)N1CC(Cn2cncn2)C1`, the “% Inhibition” value is -1% and the Z score was found to be 0.19.

Take `CCCc1ccc(CN2CC[C@H](Nc3ncccn3)[C@@H](O)C2)o1`: the “% Inhibition” value stood at 0% and the Z score was -0.03.

As for `CCn1ccc(C(=O)N2CCC(n3c(C)cnc3C3CCOCC3)CC2)n1`, the “% Inhibition” value is reported as -9% and the Z score is 1.2.

Regarding `O=S1(=O)CC[C@H](c2csc(-c3n[nH]c4ccccc34)n2)C1`, the “% Inhibition” value is given as -11% and the Z score stood at 1.67.

For the compound `Cc1cc(Cl)cc(N)c1Br`, the “% Inhibition” value stood at 25% and the Z score is recorded as -3.31.

Take `Cc1c(NC(=O)c2cc(C3CC3)on2)c(=O)n(-c2ccccc2)n1C`: the “% Inhibition” value is 7% and the Z score is on record as -0.78.

In the case of `CO[C@@]12CC[C@H](OCCO)C[C@@H]1N(C(=O)c1ccc(N(C)C)cc1)CC2`, the “% Inhibition” value is given as -2% and the Z score is 0.28.

In the case of `CC[C@H](Nc1cccc(CC(=O)OC)c1)C(N)=O`, the “% Inhibition” value was -4% and the Z score is reported as 0.7.

Take `CN(Cc1cc(C2CC2)on1)C(=O)Cc1c[nH]c(=O)n(C)c1=O`: the “% Inhibition” value is recorded as -1% and the Z score came out at 0.13.

In the case of `CCn1cc(N[C@H]2CCN(c3ccc(F)c(Cl)c3)C2=O)cn1`, the “% Inhibition” value is 1% and the Z score was -0.18.

As for `O=C(C[C@@H]1C=CCCC1)N1CCCC2(CC2)C1`, the “% Inhibition” value came out at 3% and the Z score is reported as -0.56.

In the case of `Cc1cnc(C(=O)NC2C[C@H]3CC[C@@H](C2)N3C(=O)Cc2ccc(F)cc2)cn1` (some centres not stated), the “% Inhibition” value is -5% and the Z score was 0.87.

As for `O=C(CC[C@@H]1CNC(=O)[C@@H]2C[C@H](NC(=O)Nc3ccsc3)CN12)NCc1cccs1`, the “% Inhibition” value was 3% and the Z score is -0.42.

For `COc1ccccc1CCN1C(=O)CC[C@@H]2CN(C(=O)Cc3ccsc3)CC[C@@H]21`, the “% Inhibition” value is listed as -16% and the Z score is given as 2.37.

Take `CC(C)C[C@H](NC(=O)CCc1ccc2c(c1)CCO2)c1nnc2ccccn12`: the “% Inhibition” value amounted to 4% and the Z score is -0.68.

On to `CCC(CC)(CNC(=O)N1C[C@@H](CNC(C)=O)[C@H](c2cncn2C)C1)OC`, for which the “% Inhibition” value is given as 2% and the Z score is recorded as -0.28.

`C=C(C)C[C@H](C)C(=O)N1CCC(CC(=O)O)CC1`: the “% Inhibition” value is listed as -16% and the Z score came out at 1.99.

As to `CC1(C)COc2ccc(C(=O)N3CC[C@@H](O)C3)cc21`, the “% Inhibition” value is recorded as -3% and the Z score is 0.56.

Take `O=C1C[C@@H]2CCN(Cc3ccccc3Cl)C[C@@H]2CCOc2ccccc2N1`: the “% Inhibition” value is 4% and the Z score was -0.69.

For `Cc1c[nH]c(CN(C)C(=O)C[C@@H](c2cccc(O)c2)c2cccc(Cl)c2)n1`, the “% Inhibition” value was -17% and the Z score is on record as 1.53.

Consider `CC(C)(C)c1ccc(C(C)(C)CNC(=N)N)cc1`, for which the “% Inhibition” value came to 4% and the Z score was -0.7.

For `CC1(C)C[C@@H](O)CCN(c2nc3ccccc3o2)C1`, the “% Inhibition” value is recorded as -30% and the Z score was determined as 2.66.

For `O=C1CC[C@]2(c3ccccc3)NCCN12`, the “% Inhibition” value is listed as -5% and the Z score worked out at 0.93.

For the compound `Cc1nn(C)c(C)c1S(=O)(=O)N[C@@H](C)C(=O)OC(c1ccccc1)c1ccccc1`, the “% Inhibition” value turned out to be 6% and the Z score is recorded as -0.91.

For `COc1ccc(CN2CCN(CCCn3cccn3)C[C@@H]2CCO)c(F)c1`, the “% Inhibition” value is 0% and the Z score was 0.

Consider `COC[C@H]1CCN1C(=O)c1onc2c1CCCC2`, for which the “% Inhibition” value is -3% and the Z score amounted to 0.41.

In the case of `C[C@@H](CCNC(=O)c1nc[nH]c1C(F)(F)F)c1ccccc1`, the “% Inhibition” value was -5% and the Z score is given as 0.92.

With `C[C@@H](Cc1ccc(OC(F)(F)F)cc1)C(=O)NCc1cscn1`, the “% Inhibition” value was -1% and the Z score is 0.12.

Regarding `COCCOCc1nc(C2CCN(C(=O)Nc3ccccc3F)CC2)no1`, the “% Inhibition” value came to 4% and the Z score is given as -0.5.

With `Cc1nc2cc(C(=O)N3CCC[C@H]3c3ccc4c(c3)OCCCO4)ccc2n1C`, the “% Inhibition” value is reported as -5% and the Z score is 0.5.

Take `O=C(Nc1nccs1)c1cc(NC(=O)c2cccs2)cc(NC(=O)c2cccs2)c1`: the “% Inhibition” value was determined as 28% and the Z score was -3.86.

Take `Cc1occc1C(=O)N[C@@H](CCO)C1CCOCC1`: the “% Inhibition” value is reported as -16% and the Z score stood at 3.13.

For the compound `CCCn1ncnc1[C@H](C)n1ccnc1-c1cnc(-c2ccco2)nc1`, the “% Inhibition” value is -16% and the Z score is given as 2.81.

Turning to `Cc1cc(=O)cc(C(=O)NC[C@H]2CCCN(C(=O)C(C)C)C2)n1C`, the “% Inhibition” value was -4% and the Z score is given as 0.54.

For the compound `O=C(c1ccsc1)N1CCC[C@H](CCc2noc(-c3ccccn3)n2)C1`, the “% Inhibition” value is on record as -1% and the Z score is listed as 0.17.

For `O=C(NC1CCCCCCC1)c1ccc(S(=O)(=O)NC2CC2)cc1`, the “% Inhibition” value was -14% and the Z score was 2.64.

Take `COC(OC)C(=O)N1CCN(C(=O)C2CC(C)CC(C)(C)C2)CC1` (configuration not stated): the “% Inhibition” value was -7% and the Z score was 0.93.
